# Measured values published in the supplement of paper PMC7826260.
# The list shows a part of the results. Cleavage of a single-stranded DNA pool by Rep nickase domains was read by sequencing for 1 h at 37 °C with 3 µM enzyme; only the middle of the 90-letter strands is printed. The score is log2 (uncut reads / reads without enzyme); strong cutting gives strongly negative numbers. There is no active / inactive call. Reads are scaled to the total, so uncut sequences can rise above 0 when many others are cut.
# Key:
# Experiment in all cases: uncleaved DNA left, log2 of reads against the no-enzyme library (log2 ratio); higher = less cleavage (more negative = more Rep cleavage of the k-mer); sequences stand for … in CTCGTCCG…ACCGGAGA
# [1] = system: T1, Rep nickase domain of Muscovy duck circovirus
# T1 sequence (residues 1-111, tag not shown): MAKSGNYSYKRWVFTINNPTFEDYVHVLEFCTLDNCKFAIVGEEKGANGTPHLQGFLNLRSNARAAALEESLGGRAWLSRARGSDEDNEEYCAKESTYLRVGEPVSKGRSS
# Experimental: (§1)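 A pool of 90-nt single-stranded DNAs with seven random bases just before the constant AC of the nick site (name = the seven bases) was cut by 3 µM recombinant His6-SUMO-tagged Rep nickase domain (300 nM DNA, 50 mM HEPES pH 8.0, 50 mM NaCl, 1 mM MnCl2, 1 h, 37 °C, three replicates). Uncut DNA was amplified and sequenced.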
# [2] = system: T2, Rep nickase domain of banana bunchy top virus
# T2 sequence (residues 1-94, tag not shown): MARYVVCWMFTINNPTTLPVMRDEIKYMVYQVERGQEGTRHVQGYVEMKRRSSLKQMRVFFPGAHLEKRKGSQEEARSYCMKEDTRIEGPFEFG
# Experimental: as §1
# [3] = system: T3, Rep nickase domain of cabbage leaf curl virus
# T3 sequence (residues 1-116, tag not shown): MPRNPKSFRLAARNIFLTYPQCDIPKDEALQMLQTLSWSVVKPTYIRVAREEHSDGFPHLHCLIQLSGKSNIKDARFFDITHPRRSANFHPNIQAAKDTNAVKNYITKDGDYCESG
# Experimental: as §1
# [4] = system: T4, Rep nickase domain of chickpea chlorotic dwarf virus
# T4 sequence (residues 1-124, tag not shown): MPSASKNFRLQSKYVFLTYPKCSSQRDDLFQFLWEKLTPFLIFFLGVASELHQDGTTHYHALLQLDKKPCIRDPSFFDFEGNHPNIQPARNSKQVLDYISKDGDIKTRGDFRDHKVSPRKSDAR
# Experimental: as §1
# [5] = system: T5, Rep nickase domain of faba bean necrotic yellows virus
# T5 sequence (residues 1-98, tag not shown): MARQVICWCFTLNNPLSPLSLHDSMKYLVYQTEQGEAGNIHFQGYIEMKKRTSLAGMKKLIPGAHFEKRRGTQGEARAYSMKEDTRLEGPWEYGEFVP
# Experimental: as §1
# [6] = system: T6, Rep nickase domain of maize striate mosaic virus
# T6 sequence (residues 1-117, tag not shown): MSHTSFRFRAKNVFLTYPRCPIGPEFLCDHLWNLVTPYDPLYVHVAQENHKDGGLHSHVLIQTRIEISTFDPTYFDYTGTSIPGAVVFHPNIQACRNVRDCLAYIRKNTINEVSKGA
# Experimental: as §1
# [7] = system: T7, Rep nickase domain of porcine circovirus 2
# T7 sequence (residues 2-116, tag not shown): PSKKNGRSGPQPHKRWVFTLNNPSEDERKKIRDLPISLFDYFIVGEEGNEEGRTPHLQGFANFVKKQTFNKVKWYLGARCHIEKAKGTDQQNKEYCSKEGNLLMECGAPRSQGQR
# Experimental: as §1
# [8] = system: T8, Rep nickase domain of tomato golden mosaic virus
# T8 sequence (residues 1-124, tag not shown): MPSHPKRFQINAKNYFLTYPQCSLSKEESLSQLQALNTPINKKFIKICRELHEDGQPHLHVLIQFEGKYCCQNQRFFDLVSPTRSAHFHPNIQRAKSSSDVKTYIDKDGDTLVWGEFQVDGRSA
# Experimental: as §1
# [9] = system: T9, Rep nickase domain of tomato yellow leaf curl virus
# T9 sequence (residues 1-136, tag not shown): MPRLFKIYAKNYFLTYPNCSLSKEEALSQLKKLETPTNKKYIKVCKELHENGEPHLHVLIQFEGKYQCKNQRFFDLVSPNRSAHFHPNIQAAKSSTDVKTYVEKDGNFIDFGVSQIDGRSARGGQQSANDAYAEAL
# Experimental: as §1
# [10] = system: T10, Rep nickase domain of wheat dwarf virus
# T10 sequence (residues 1-137, tag not shown): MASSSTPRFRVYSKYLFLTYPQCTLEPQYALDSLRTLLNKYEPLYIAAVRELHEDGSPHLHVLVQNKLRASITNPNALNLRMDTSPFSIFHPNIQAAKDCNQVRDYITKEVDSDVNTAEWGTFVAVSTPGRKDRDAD
# Experimental: as §1
Sequence,uncleaved DNA left (log2) [1],uncleaved DNA left (log2) [2],uncleaved DNA left (log2) [3],uncleaved DNA left (log2) [4],uncleaved DNA left (log2) [5],uncleaved DNA left (log2) [6],uncleaved DNA left (log2) [7],uncleaved DNA left (log2) [8],uncleaved DNA left (log2) [9],uncleaved DNA left (log2) [10]
ATATTCA,-0.112,0.0441,-0.167,-1.42,-0.0901,-0.929,-0.282,-0.0459,0.0894,0.0235
CGGCGAA,-0.115,-0.0411,-0.45,-0.202,0.0636,-0.456,0.0402,-0.0277,-0.0475,-0.113
ATTCATC,0.0805,0.111,0.0888,0.0125,-0.0458,-0.491,0.0568,-0.0191,0.0393,0.0801
AAGGCAA,0.0974,0.127,0.224,0.659,0.0744,0.651,0.156,0.0685,4.64e-05,0.114
GCCAAGG,-0.0745,0.00336,0.223,1.09,-0.0693,0.888,0.0104,0.0459,-0.0749,0.00531
GGGATTA,0.0645,0.251,0.868,2.08,0.148,2.35,0.266,0.182,0.131,0.281
ATGGATA,0.114,0.00815,0.258,1.32,0.124,1.45,0.213,0.147,-0.076,-0.0545
CTTAAGC,-0.00925,0.0553,0.0247,-0.16,0.0056,-0.996,0.232,-0.0113,0.0969,0.179
TCTTAAC,0.104,0.0953,-0.00336,-1.46,0.156,-0.313,0.113,0.103,0.143,0.0937
TTTGACA,0.0769,0.0595,0.229,-0.824,0.0918,0.16,0.145,0.0822,0.152,0.0645
GGGGTCA,0.00646,0.156,0.871,1.94,0.027,2.3,0.197,0.0767,0.048,0.0819
GGAACGT,-0.0651,0.0829,0.831,1.98,-0.0447,2.16,0.135,0.0391,-0.042,0.19
GTACTTC,-0.0427,-0.00125,0.412,0.841,0.0426,1.59,0.0654,0.151,0.0901,0.133
CCACCAA,-0.113,0.0498,-0.0947,-0.726,-0.0731,-0.687,-0.276,-0.0608,-0.0411,-0.0572
TAGTAGG,0.177,0.0872,0.363,0.88,0.128,0.855,-0.113,0.199,-0.00793,0.167
GCTACGG,-0.119,0.0426,0.423,1.38,-0.0612,1.96,0.089,-0.0327,-0.174,-0.0617
AGCGAGT,0.125,0.153,0.00394,0.627,0.0881,1.53,0.0465,0.123,0.125,0.157
GCAGGAG,0.0408,0.0377,-0.252,0.00898,-0.144,-0.661,0.145,0.0146,0.0723,0.0436
TAGATCG,0.109,-0.0126,-0.877,-0.383,0.0127,-1.23,0.0349,-0.0648,0.0635,-0.0149
GAAGATC,0.0464,-0.044,0.228,0.221,0.0256,0.663,0.000899,0.0863,0.0732,0.0919
TGGGAAC,0.00848,0.101,0.801,1.91,0.00299,2.17,0.132,0.00921,0.0491,0.152

Sequence,uncleaved DNA left (log2) [1],uncleaved DNA left (log2) [2],uncleaved DNA left (log2) [3],uncleaved DNA left (log2) [4],uncleaved DNA left (log2) [5],uncleaved DNA left (log2) [6],uncleaved DNA left (log2) [7],uncleaved DNA left (log2) [8],uncleaved DNA left (log2) [9],uncleaved DNA left (log2) [10]
GCGTCGG,0.177,0.106,0.122,0.813,0.0637,1.49,0.221,0.23,0.0126,0.093
ACCCCTT,0.0797,0.025,0.201,-1.81,0.119,-0.0131,-0.111,0.0895,0.00301,-0.011
AGCCCCG,-0.0212,-0.137,-0.496,-0.238,-0.0304,-0.527,-0.033,-0.114,-0.101,-0.108
GGTGAAA,0.0961,0.146,0.617,1.36,0.084,2.09,0.376,0.215,0.195,0.225
TCCGAAA,0.0518,-0.143,0.132,0.425,0.0833,0.145,0.0977,0.0443,-0.0911,-0.0135
TAAAGCA,-0.00485,-0.0661,-1.6,-2.45,-0.0139,-1.32,-0.274,-0.0934,0.084,-0.61
TACATTG,-0.00673,-0.106,-0.569,-0.877,0.105,-1.26,0.148,-0.0417,-0.143,0.0147
CGCGGTA,-0.0245,0.0225,-0.24,-0.529,-0.114,-0.575,-0.0115,-0.00778,0.0758,0.00584
CCGGCGA,0.0818,-0.255,-0.639,-0.211,-0.0965,-0.558,0.0615,-0.11,-0.0923,-0.33
ACTACCC,-0.0464,-0.159,-0.0592,-0.312,-0.0678,-0.274,-0.598,-0.0866,-0.0802,-0.0203
CCAGAGG,0.141,-0.108,0.263,0.964,0.0406,0.263,0.15,0.157,0.00837,0.0489
TGACTGC,0.039,-0.14,0.00313,0.528,-0.168,1.32,-0.142,-0.0819,-0.166,0.00318
TGCTGAC,-0.0107,0.0241,0.0373,0.455,0.102,0.0062,0.0279,-0.0435,-0.187,-0.0156
GCCATCT,-0.0463,0.0211,-0.112,-1.2,-0.118,-0.454,-0.1,-0.126,0.0246,-0.125
GGCTACC,-0.0666,0.0252,0.355,0.511,-0.0834,1.4,-0.0605,-0.0575,-0.0494,-0.00351
ATTGACT,-0.0573,0.00467,0.0808,-0.142,0.0256,0.454,-0.137,0.045,0.0387,-0.05
GTCCCTC,-0.0173,0.0463,0.309,0.805,0.0449,1.56,0.0341,0.0156,0.0328,0.127
AGTGACA,-0.0215,0.0662,0.0165,0.644,-0.108,1.35,-0.000666,0.0153,0.0152,0.00693
GAGACAA,0.103,0.115,0.905,2.19,0.0939,2.24,0.269,0.13,0.0546,0.238
GCGCAAA,-0.00444,0.137,0.124,0.625,-0.0799,0.359,0.0594,0.0358,0.0789,0.0983
TAGTAAC,-0.0229,-0.093,-0.128,-1.47,-0.202,-0.295,-3.28,-0.0259,-0.0208,-0.0337

Sequence,uncleaved DNA left (log2) [1],uncleaved DNA left (log2) [2],uncleaved DNA left (log2) [3],uncleaved DNA left (log2) [4],uncleaved DNA left (log2) [5],uncleaved DNA left (log2) [6],uncleaved DNA left (log2) [7],uncleaved DNA left (log2) [8],uncleaved DNA left (log2) [9],uncleaved DNA left (log2) [10]
CGTCACA,0.102,0.0522,0.0693,-0.752,-0.0929,-0.174,-0.0811,-0.073,-0.0585,0.0753
CCCTTAC,-0.0532,-0.245,-0.209,-2.1,-0.187,-0.809,-0.138,-0.278,-0.202,-0.209
AAAGTAT,0.221,0.15,0.215,1.12,0.121,1.68,0.235,0.235,0.027,0.17
AGCATAT,0.134,0.097,0.0162,-0.288,-0.0192,0.216,-0.366,-0.0641,0.0714,0.0238
GCACTCT,-0.102,-0.0736,-0.28,-1.72,-0.155,-0.178,-0.0899,-0.134,-0.147,-0.0791
GTTAAGT,0.0996,0.038,0.234,0.64,0.0146,0.964,0.0984,0.116,0.0611,-0.0487
CGCGCCC,-0.111,-0.0459,-0.103,-0.132,-0.144,-0.223,-0.00106,-0.123,-0.164,-0.156
AAGTACA,-0.0636,-0.111,-0.143,-2.03,-0.129,-0.333,-2.57,-0.0698,0.101,0.0613
GCCGCTC,0.161,-0.0746,0.104,0.333,0.0923,-0.0127,0.0325,-0.0291,0.007,0.00188
TTGCTAA,0.046,0.0741,-0.146,-0.191,-0.123,-0.753,0.0462,-0.0738,0.15,-0.0294
GTTAGTG,0.0631,-0.0599,-0.262,-0.394,-0.00558,-0.836,0.171,0.0717,-0.0311,-0.0221
GGATCTT,-0.275,0.0234,0.711,1.49,-0.0783,2.08,-0.8,-0.089,0.0174,0.162
TGATCAT,-0.0238,0.114,0.643,1.13,-0.0217,1.66,0.0492,-0.0882,0.135,0.156
AGAATAC,0.147,0.0142,0.0609,-0.308,-0.00651,-0.427,0.129,0.12,0.0115,0.111
GTGAAGT,0.0753,0.075,0.3,0.831,-0.0321,0.729,0.0356,0.0611,0.0728,0.169
CACAGCC,-0.155,-0.176,-0.295,-0.484,-0.0592,-0.939,0.0717,-0.152,-0.103,-0.0987
CGCTGCC,-0.196,-0.141,-0.172,-0.0524,-0.0389,-0.153,-0.13,-0.239,-0.138,-0.231
CCCCCTT,-0.0247,-0.109,0.0552,-1.63,0.0783,-0.383,-0.466,-0.0407,-0.0774,0.0289
GTTCGGC,0.129,0.0217,0.287,0.816,0.0148,0.869,0.136,0.0701,0.0153,0.0435
CAGAGGC,-0.0469,-0.057,-0.144,-0.254,-0.0207,-0.976,0.0156,0.104,-0.14,-0.134
